The record followed here is US20210238260A1 (published 2021).

Substitutions are numbered along the chain they refer to. In names and notes the source's numbering stands.

Assay [1] concerns the target T1, Factor VIIIa (recombinant FVIII, Kogenate FS, activated with alpha-thrombin) (UniProt P00451 20-2351).
T1 construct: also called FVIIIa; cofactor
T1 sequence (looked up): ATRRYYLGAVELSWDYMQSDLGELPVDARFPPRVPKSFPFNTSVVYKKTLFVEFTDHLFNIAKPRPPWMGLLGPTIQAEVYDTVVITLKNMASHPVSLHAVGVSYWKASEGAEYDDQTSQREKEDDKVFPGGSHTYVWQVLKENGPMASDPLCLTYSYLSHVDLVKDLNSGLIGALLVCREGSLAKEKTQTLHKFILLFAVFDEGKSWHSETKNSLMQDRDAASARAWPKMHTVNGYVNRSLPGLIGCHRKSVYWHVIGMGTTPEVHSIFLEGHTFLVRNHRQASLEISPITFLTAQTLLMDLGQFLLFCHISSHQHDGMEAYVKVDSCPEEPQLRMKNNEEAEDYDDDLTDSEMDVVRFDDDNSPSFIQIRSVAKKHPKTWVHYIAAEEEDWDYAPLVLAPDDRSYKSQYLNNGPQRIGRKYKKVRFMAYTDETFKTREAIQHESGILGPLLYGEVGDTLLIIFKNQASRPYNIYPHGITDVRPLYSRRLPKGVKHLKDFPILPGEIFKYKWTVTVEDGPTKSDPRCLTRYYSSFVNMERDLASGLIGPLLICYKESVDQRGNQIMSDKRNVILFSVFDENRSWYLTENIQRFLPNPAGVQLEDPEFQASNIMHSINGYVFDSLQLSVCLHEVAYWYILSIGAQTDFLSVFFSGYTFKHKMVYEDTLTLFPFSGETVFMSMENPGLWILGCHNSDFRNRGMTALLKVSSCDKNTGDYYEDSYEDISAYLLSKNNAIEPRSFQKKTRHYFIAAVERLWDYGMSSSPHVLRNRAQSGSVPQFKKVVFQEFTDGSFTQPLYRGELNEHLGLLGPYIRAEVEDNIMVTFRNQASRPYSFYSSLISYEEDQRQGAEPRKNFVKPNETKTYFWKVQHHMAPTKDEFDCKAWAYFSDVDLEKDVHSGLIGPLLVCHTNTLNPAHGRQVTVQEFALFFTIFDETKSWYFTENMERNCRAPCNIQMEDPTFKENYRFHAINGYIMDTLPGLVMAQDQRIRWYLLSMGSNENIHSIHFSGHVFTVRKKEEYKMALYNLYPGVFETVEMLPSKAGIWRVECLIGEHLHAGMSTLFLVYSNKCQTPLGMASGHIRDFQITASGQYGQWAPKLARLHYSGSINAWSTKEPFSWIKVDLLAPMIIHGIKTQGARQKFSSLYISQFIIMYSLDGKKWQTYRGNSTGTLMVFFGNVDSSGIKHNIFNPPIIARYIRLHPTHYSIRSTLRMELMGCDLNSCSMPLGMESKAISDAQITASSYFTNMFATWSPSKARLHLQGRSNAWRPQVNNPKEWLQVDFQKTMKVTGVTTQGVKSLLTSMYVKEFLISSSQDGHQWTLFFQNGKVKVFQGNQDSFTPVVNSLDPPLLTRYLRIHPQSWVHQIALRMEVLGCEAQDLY
Kind of assay: apparent functional KD (KD-app): FXa generation by FIXa with FVIIIa titrated, PC/PS vesicles, saturating FX, fluorogenic Spectrafluor FXa.

The target in assay [2] is T1, Factor VIIIa (recombinant FVIII, …). Nature of the assay: same assay; ratio of KD-app of Catalyst Biosciences WT FIXa to KD-app of this FIXa.
In assay [3] the target is T2, antithrombin III (plasma purified human AT-III, Molecular Innovations) (human, UniProt P01008).
T2 construct: also called AT-III/UFH
Kind of assay: AT-III/UFH inhibition of FIXa cleavage of Mesyl-D-CHG-Gly-Arg-AMC; K0.5 = AT-III conc. for 50% inhibition (AT-III varied).

Assay [4] concerns the target T3, plasma purified human antithrombin III (AT-III), in complex with unfractionated heparin (UFH) (human, UniProt P01008).
T3 construct: also called AT-III/UFH
Nature of the assay: K0.5: AT-III conc. (with UFH) for 50% inhibition of FIXa cleavage of Mesyl-D-CHG-Gly-Arg-AMC.

Assay [5] addresses T4, plasma purified human AT-III (antithrombin III) in complex with unfractionated heparin (human, UniProt P01008).
T4 construct: also called AT-III/UFH
Kind of assay: AT-III/UFH inhibition of FIXa, residual activity on Mesyl-D-CHG-Gly-Arg-AMC; K0.5 = AT-III conc. for 50% inhibition.

B1: FIXa-D104N/K106S/I251S (enzyme)
chain 1: YNSGKLEEFVQGNLERECMEEKCSFEEAREVFENTERTTEFWKQYVDGDQCESNPCLNGGSCKDDINSYECWCPFGFEGKNCELDVTCNIKNGRCEQFCKNSANNSVVCSCTEGYRLAENQKSCEPAVPFPCGRVSVSQTSKLTR
chain 2: [no letters for about 250 residues with changes]
As for B1, the Kd in assay [1] is 306 nM. In addition, the KD-WT/KD-mut in assay [2] worked out at 0.3.

B2: FIXa D85N/D203N/F205T (enzyme)
light: B1 chain 1 with D85N, N104D, S106K
heavy: [no letters for about 250 residues with changes]
notes: also called D[85]N/D39N/F41T
Broadly, the IC50 is the concentration needed to halve the response being measured. Read a low IC50 as greater potency. Molecule B2 displayed an IC50 in assay [3] of 587 nM.

B3: FIXa D85N/I251S (enzyme)
light: B1 chain 1 with D85N, N104D, S106K
heavy: [no letters for about 250 residues with changes]
notes: also called D[85]N/I86S
B3 gave an IC50 in assay [3] of 19 nM. This IC50 lies about 31-fold lower than the previous one.

B4: FIXa-A103N/N105S/K228N (enzyme)
chain 1: B1 chain 1 with A103N, N104D, N105S, S106K
chain 2: [no letters for about 250 residues with changes]
Regarding B4, in assay [4], half-maximal inhibition (IC50) was put at 46 nM.

B5: FIXa-D104N/K106S/I251S (enzyme)
chain 1: B1 chain 1
chain 2: [no letters for about 250 residues with changes]
B5 showed an IC50 in assay [5] of 32 nM.

B6: FIXa A103N/N105S/K228N (enzyme)
light: B1 chain 1 with A103N, N104D, N105S, S106K
heavy: [no letters for about 250 residues with changes]
Turning to B6, the midpoint of inhibition in assay [3], the IC50, lay at 46 nM.

B7: FIXa D85N/K228N (enzyme)
light: B1 chain 1 with D85N, N104D, S106K
heavy: [no letters for about 250 residues with changes]
notes: also called D[85]N/K63N
Molecule B7 had an IC50 in assay [3] of 34 nM.

B8: FIXa-A103N/N105S/I251S (enzyme)
chain 1: B1 chain 1 with A103N, N104D, N105S, S106K
chain 2: [no letters for about 250 residues with changes]
B8 showed an IC50 in assay [5] of 42 nM.

B9: FIXa-D85N/K228N (enzyme)
chain 1: B1 chain 1 with D85N, N104D, S106K
chain 2: [no letters for about 250 residues with changes]
notes: also called D[85]N/K63N
In turn, B9 displayed an IC50 in assay [4] of 34 nM.

B10: FIXa-D85N/I251S (enzyme)
chain 1: B1 chain 1 with D85N, N104D, S106K
chain 2: [no letters for about 250 residues with changes]
notes: also called D[85]N/I86S
For B10, the IC50 in assay [4] came out at 19 nM.

B11: FIXa-D85N/D203N/F205T (enzyme)
chain 1: B1 chain 1 with D85N, N104D, S106K
chain 2: [no letters for about 250 residues with changes]
notes: also called D[85]N/D39N/F41T
Molecule B11 displayed an IC50 in assay [4] of 587 nM.
